Sequences and labels used below:
T1: RBFOX1 RRM (Homo sapiens, UniProt Q9NWB1 109-208)
T1 sequence: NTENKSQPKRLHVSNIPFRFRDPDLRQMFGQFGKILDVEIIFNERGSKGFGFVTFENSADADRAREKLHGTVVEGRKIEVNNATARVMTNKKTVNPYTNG

B1: UAAUGGC (DNA:RNA)
RNA: GGGAGACCGGAAUUCAGAUUGUCCUAAUGGCUUAAAUCCCGUCGUAGCCACCA
DNA 1: CAATCTGAATTCCGGTCTCCC
DNA 2: TGGTGGCTACGACGGGATT
B2: GUACCCG (DNA:RNA)
RNA: B1 RNA with U25G, A26U, U28C, G29C, G30C, C31G
DNA 1: CAATCTGAATTCCGGTCTCCC
DNA 2: TGGTGGCTACGACGGGATT
B3: AACAAUU (DNA:RNA)
RNA: B1 RNA with U25A, A27C, U28A, G29A, G30U, C31U
DNA 1: CAATCTGAATTCCGGTCTCCC
DNA 2: TGGTGGCTACGACGGGATT
B4: GAAGUGU (DNA:RNA)
RNA: B1 RNA with U25G, U28G, G29U, C31U
DNA 1: CAATCTGAATTCCGGTCTCCC
DNA 2: TGGTGGCTACGACGGGATT
B5: GUCACGG (DNA:RNA)
RNA: B1 RNA with U25G, A26U, A27C, U28A, G29C, C31G
DNA 1: CAATCTGAATTCCGGTCTCCC
DNA 2: TGGTGGCTACGACGGGATT
B6: AACCAUA (DNA:RNA)
RNA: B1 RNA with U25A, A27C, U28C, G29A, G30U, C31A
DNA 1: CAATCTGAATTCCGGTCTCCC
DNA 2: TGGTGGCTACGACGGGATT
B7: UAGUUGA (DNA:RNA)
RNA: B1 RNA with A27G, G29U, C31A
DNA 1: CAATCTGAATTCCGGTCTCCC
DNA 2: TGGTGGCTACGACGGGATT
B8: AACGAUG (DNA:RNA)
RNA: B1 RNA with U25A, A27C, U28G, G29A, G30U, C31G
DNA 1: CAATCTGAATTCCGGTCTCCC
DNA 2: TGGTGGCTACGACGGGATT
B9: AGCCUCG (DNA:RNA)
RNA: GGGAGACCGGAAUUCAGAUUGUCCAGCCUCGUUAAAUCCCGUCGUAGCCACCA
DNA 1: CAATCTGAATTCCGGTCTCCC
DNA 2: TGGTGGCTACGACGGGATT
B10: ACAGGGA (DNA:RNA)
RNA: B1 RNA with U25A, A26C, U28G, C31A
DNA 1: CAATCTGAATTCCGGTCTCCC
DNA 2: TGGTGGCTACGACGGGATT
B11: UUACUUG (DNA:RNA)
RNA: B9 RNA with A25U, G26U, C27A, C30U
DNA 1: CAATCTGAATTCCGGTCTCCC
DNA 2: TGGTGGCTACGACGGGATT
B12: CUGUCCG (DNA:RNA)
RNA: B9 RNA with A25C, G26U, C27G, C28U, U29C
DNA 1: CAATCTGAATTCCGGTCTCCC
DNA 2: TGGTGGCTACGACGGGATT
B13: UGAAAGA (DNA:RNA)
RNA: B1 RNA with A26G, U28A, G29A, C31A
DNA 1: CAATCTGAATTCCGGTCTCCC
DNA 2: TGGTGGCTACGACGGGATT
B14: UGGUCGA (DNA:RNA)
RNA: B1 RNA with A26G, A27G, G29C, C31A
DNA 1: CAATCTGAATTCCGGTCTCCC
DNA 2: TGGTGGCTACGACGGGATT
B15: CUUAGGU (DNA:RNA)
RNA: B1 RNA with U25C, A26U, A27U, U28A, C31U
DNA 1: CAATCTGAATTCCGGTCTCCC
DNA 2: TGGTGGCTACGACGGGATT
B16: CCGCUGU (DNA:RNA)
RNA: B9 RNA with A25C, G26C, C27G, C30G, G31U
DNA 1: CAATCTGAATTCCGGTCTCCC
DNA 2: TGGTGGCTACGACGGGATT
B17: AAGUCAG (DNA:RNA)
RNA: B9 RNA with G26A, C27G, C28U, U29C, C30A
DNA 1: CAATCTGAATTCCGGTCTCCC
DNA 2: TGGTGGCTACGACGGGATT
B18: GUCACAG (DNA:RNA)
RNA: B9 RNA with A25G, G26U, C28A, U29C, C30A
DNA 1: CAATCTGAATTCCGGTCTCCC
DNA 2: TGGTGGCTACGACGGGATT
B19: AAGAAGG (DNA:RNA)
RNA: B9 RNA with G26A, C27G, C28A, U29A, C30G
DNA 1: CAATCTGAATTCCGGTCTCCC
DNA 2: TGGTGGCTACGACGGGATT
B20: CAUGGUA (DNA:RNA)
RNA: B1 RNA with U25C, A27U, U28G, G30U, C31A
DNA 1: CAATCTGAATTCCGGTCTCCC
DNA 2: TGGTGGCTACGACGGGATT

For 20 molecules, binding signal results are on record in publication PMC9911399, “Two distinct binding modes provide the RNA-binding protein RbFox with extraordinary sequence specificity”.

Numbering of substitutions follows the chain as printed; changes in the protein carry UniProt numbers. The list shows a part of the results.

This test deals with T1, RBFOX1 RRM. Kind of test: EMSA; HiTS-Eq, 1 nM pool, 10 min; buffer printed only for the single-RNA assays: 10 mM Tris pH 7.5, 150 mM NaCl, 3.4 mM EDTA, 0.001% NP-40, 30 C. The following applies: tags: His6 N-terminal (pET28a); label: 5' 32P. Put shortly:
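Purified RbFox RRM (wild type or mutant) was equilibrated for 10 min in 50 µL with 1 nM of a 5′-radiolabelled pool of RNA with 7 randomized nucleotides, its flanks annealed to DNA oligonucleotides, across increasing protein concentrations. Free RNA was separated by 8% native PAGE, excised, reverse-transcribed, PCR-barcoded and sequenced on an Illumina HiSeq 2500. Relative association constants came from read-count changes of each variant against the control reaction, normalised to the cognate motif.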
(In general: Mobility shift assays separate free from complexed probe on a gel.)
On to B1, for which the binding signal is 0.0107 KA relative to UGCAUGU.

On to B2, for which the binding signal is 0.0111 KA relative to UGCAUGU.

Take B3: the binding signal was 0.00048 KA relative to UGCAUGU.

For B4, the binding signal is 0.0181 KA relative to UGCAUGU.

On to B5, for which the binding signal was 0.013 KA relative to UGCAUGU.

B6: the binding signal was 0.000118 KA relative to UGCAUGU.

On to B7, for which the binding signal was 0.0143 KA relative to UGCAUGU.

As to B8, the binding signal was 0.00916 KA relative to UGCAUGU.

For the molecule B9, the binding signal is 0.00905 KA relative to UGCAUGU.

As for B10, the binding signal is 0.00503 KA relative to UGCAUGU.

Turning to B11, the binding signal was 0.0182 KA relative to UGCAUGU.

Take B12: the binding signal was 0.0164 KA relative to UGCAUGU.

As to B13, the binding signal was 0.0171 KA relative to UGCAUGU.

Take B14: the binding signal is 0.0247 KA relative to UGCAUGU.

Consider B15, for which the binding signal was 0.0134 KA relative to UGCAUGU.

For the molecule B16, the binding signal is 0.0129 KA relative to UGCAUGU.

With B17, the binding signal was 0.00914 KA relative to UGCAUGU.

For B18, the binding signal was 0.00981 KA relative to UGCAUGU.

For the molecule B19, the binding signal was 0.00952 KA relative to UGCAUGU.

Consider B20, for which the binding signal was 0.0123 KA relative to UGCAUGU.
